Reference: PubChem BioAssay AID493208 (National Center for Advancing Translational Sciences (NCATS), 2011)
Hit rate of the full screen: of about 44,000 compounds, about 340 (0.77%) were called active. About 5% were inconclusive and are not listed. The call rests on the fitted dose curve; in most records, active means well fitted inhibition curve with a large enough effect; inconclusive means small, poorly fitted or top-dose-only effect; inactive means flat fitted curve, though single readings scatter. The list shows a part of the results.

Assay: Acumen qHTS Assay for Inhibitors of the mTORC1 Signaling Pathway in MEF (Tsc2-/-, p53-/-) Cells: Sytravon;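 further: plate controls were DMSO for no effect and rapamycin for full effect; nearly all actives have a fitted effect of over 50% in size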
Conditions: phospho-rpS6 immunofluorescence/PI, 24 h; series mostly up to 38.3 µM; activity change, negative = inhibition: at the top concentration
Procedure, shortened: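 Tsc2-/-, p53-/- MEFs (empty-vector stable line) in DMEM + 10% FBS were treated with compounds 24 h at 37 degree Celsius, fixed, and immunostained for phospho-rpS6 (Alexa-488) with propidium iodide counterstain. Laser-scanning cytometry gave % positive cells, normalized against 7.5 nM rapamycin and DMSO.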

Activity change, negative = inhibition, inactive:
Cc1nn(C)c2c1c(-c1ccccc1)cc(=O)n2C(C)C(=O)NCCc1ccc(Cl)cc1 (centres undefined) 5.31%, COc1ccc(-c2ccc3c(N)c(C(=O)Nc4ccc(C)cc4C)sc3n2)cc1OC -7.69%, COc1ccc(S(=O)(=O)NCC(c2ccco2)N2CCN(c3ccccc3F)CC2)cc1OC (centres undefined) -1.24%, CC(C)c1nc2ccc(C(=O)NCc3ccc(F)cc3)cc2o1 3.4%, CC1CCN(C(=O)c2ccccc2NC(=O)c2nsc3ccccc23)CC1 2.71%, CCc1cccc(NC(=O)C2CCCN2S(=O)(=O)c2ccc3c(c2)n(C)c(=O)c(=O)n3C)c1 (centres undefined) 11.7%, COc1ccc(-n2c(SCC(=O)Nc3cc(C)cc(C)c3)nc3c(oc4ccccc43)c2=O)cc1 -5.65%, COc1ccc(CNC(=O)CCc2c(C)nn(-c3ccc(N4CCCC4)nn3)c2C)c(OC)c1 3.95%, CCOc1ccc(-c2cc(NC(=O)c3c(F)cccc3F)c(C(=O)OC)s2)cc1 -16.2%, Cc1ccc(Cl)cc1NC(=O)c1cnn2c(C(F)F)cc(-c3ccccc3)nc12 -28.8%, COc1ccc(NC(=O)c2cc(S(=O)(=O)N3CCCCC3)c[nH]2)cc1Cl -3.9%, COC(=O)c1c(NC(=O)C(C)Oc2ccc(Cl)cc2Cl)sc2c1CCCC2 (centres undefined) 3.96%, Cc1cc(C)c(/C=C/c2onc(C)c2S(=O)(=O)N2CCC(C(=O)NCC(C)c3ccccc3)CC2)c(C)c1 (centres undefined) -13%, Cc1cc(NC(=O)CC(C)C)cc(-c2nc3ncccc3o2)c1O 1.54%, O=C(CCS(=O)(=O)c1cc2c3c(c1)CCN3C(=O)CC2)NCc1ccc(Cl)cc1 -5.88%, COC(=O)CSc1ccc2nnc(CCNS(=O)(=O)c3ccc(C)cc3)n2n1 -0.463%, CCOC(=O)C1=C(CN2CCN(c3ccccc3F)CC2)NC(=O)NC1c1ccc(OC)cc1 (centres undefined) 2.92%, CCc1cccc(C)c1Nc1c(-c2cccc(O)c2)nc2cnccn12 1.65%, CCOc1ccccc1NC(=O)Cn1nc2c3cc(F)ccc3n(Cc3cccc(C)c3)cc-2c1=O -1.4%, COc1cccc(NC(=O)CCc2nc(-c3cc(OC)c(OC)c(OC)c3)no2)c1 0.0842%, COc1ccc(CCNC(=O)c2cc(-c3ccc(Cl)cc3)on2)cc1OC -1.02%, Cc1ccc(C)c(NC(=O)C(=O)NCCc2csc(-c3cccc(F)c3)n2)c1 0.932%, Cn1c(=O)cc(SCC(=O)Nc2cccc(C#N)c2)c2ccc(Cl)cc21 -1.63%, CCOC(=O)c1ccc(NC(=O)c2cc3c(=O)n(C)c4ccccc4c3n2C)cc1 4.28%, COc1cc2c(C(=O)N3CCN(c4ccc(C)cc4)C(C)C3)cn(CC(C)C)c(=O)c2cc1OC (centres undefined) 6.79%, Cc1nc2ccccn2c(=O)c1NC(=O)c1ccccc1Cl -4.78%, COc1ccc(N2CCN(C(=O)Cc3noc4ccc(C)cc34)CC2)cc1 -0.818%, CCc1ccc(NC(=O)Cn2ccn(-c3cccc(Cl)c3)c(=O)c2=O)cc1 4.6%, COc1ccc(C(=O)N2CCC(c3ccncc3)CC2)cc1OC -9%, Cc1ccc(CN2CCc3nc(N4CCN(C)CC4)ncc3C2)cc1 0%, Cc1nc2sccn2c(=O)c1S(=O)(=O)NCc1ccccc1 -7%, Cc1ccc(C)c(N2CCN(C(=O)c3ccc4c(c3)c(C)c(C)n4C)CC2)c1 -6.85%, COC(=O)c1ccc(OC)c(CN2CCCN(Cc3ccc(C)cc3)S2(=O)=O)c1 -3.61%, COc1ccc(Cl)cc1C(=O)NCC(c1ccc(N(C)C)cc1)N1CCOCC1 (centres undefined) 19.6%, Cc1cccc(C)c1OCC(=O)N(Cc1ccc(Cl)cc1)CC1CCCO1 (centres undefined) 0.556%, CC(C)c1nn2c(=O)cc(COC(=O)c3ccccc3NC(=O)c3cccs3)nc2s1 3.79%, Cn1c(=O)c2c(nc(NCCc3ccccc3)n2Cc2ccc(Cl)c(Cl)c2)n(C)c1=O -10%, CC1CCCN(c2csc3ccccc3c2=O)C1 (centres undefined) -7.12%, COc1ccc(S(=O)(=O)NCCc2cn3ccsc3n2)cc1OC -12.8%, CCOc1ccc(N(Cc2cc3cc(C)ccc3[nH]c2=O)C(=O)c2cccc(Cl)c2)cc1 -0.638%, CCOC(=O)C1CCN(CCC(=O)Nc2ccccc2Cl)CC1 -0.184%, Cc1ccc(C)c(CN2CCC(CNC(=O)Cn3ncc4c([nH]c5ccccc54)c3=O)CC2)c1 -6.83%, O=C(NCCCN1CCOCC1)c1ccc2c(c1)N(Cc1ccccc1)C(=O)c1ccccc1S2 6.98%, CCOc1ccc(NC(=O)NC(C)c2c(-n3cccc3)sc(C)c2C)cc1 (centres undefined) -1.41%, O=C(Cn1nc(N2CCN(c3ccccc3)CC2)ccc1=O)NCc1cccc(Cl)c1 -5.91%, Cc1cccc(OCCCCn2nnc3sc4c(c3c2=O)CCC(C)C4)c1 (centres undefined) -3.15%, CCOc1ccccc1CNC(=O)CN1C(=O)CCCc2ccccc21 -8.29%, CCOC(=O)CSc1nc2sc3c(c2c(=O)n1Cc1ccccc1)CC(C)CC3 (centres undefined) 7.91%, Cc1ccc(-n2ncc3c(NCCc4ccccc4)ncnc32)cc1C -27.9%
